# Measured values: the supplement of paper PMC8728848
# The other results are listed elsewhere or left out.
# B1: rCnSL-proA (Clitocybe nebularis) (protein)
# chain: AAFFSLVVLLALLPFGIHASALPSTELTPRVNPNLPGPNDVFVGFRGTNNIVGAIYEKDGIKDTPLNNGADAEMGPGSYITDGLFTARIFASGSAGNNPGTTATVCKIYASGVQWRGAPKGYIPVAYFGNGPTAEQRRQTYLRTLGLPGTAIRFGNLNTNPGQGPTAPRQMVVPPGPLRSLLKASCFPAADTRLPQTLHYFEKRVDWNIITAADSQTWGH
# Assays:
# Test in all cases: glycan array binding signal (z-score within array); higher = stronger binding
# Conditions in all cases: glycan notation: IUPAC condensed, linker removed
# [1] = target: GlcNAc(b1-2)Gal(b1-3)GalNAc
# Procedure, shortened: (§1)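 Columns mapping to the same glycan were averaged after glycan names were converted to IUPAC-condensed notation. The data come from 3228 arrays in the Consortium for Functional Glycomics database, limited to those with an available protein sequence. Binding is reported as a within-array Z-score averaged across arrays of one protein sequence and across linkers.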
# [2] = target: GlcNAc(b1-2)Man(a1-3)[GlcNAc(b1-2)Man(a1-6)]Man(b1-4)GlcNAc(b1-4)GlcNAc
# Procedure, shortened: as §1
# [3] = target: GlcNAc(b1-2)Man(a1-3)[GlcNAc(b1-2)Man(a1-6)]Man(b1-4)GlcNAc(b1-4)[Fuc(a1-6)]GlcNAc
# Procedure, shortened: as §1
# [4] = target: GlcNAc(b1-2)Man(a1-3)[GlcNAc(b1-4)][GlcNAc(b1-2)Man(a1-6)]Man(b1-4)GlcNAc(b1-4)GlcNAc
# Procedure, shortened: as §1
# [5] = target: GlcNAc(b1-2)Man(a1-3)[GlcNAc(b1-4)][GlcNAc(b1-2)Man(a1-6)]Man(b1-4)GlcNAc(b1-4)[Fuc(a1-6)]GlcNAc
# Procedure, shortened: as §1
# [6] = target: GlcNAc(b1-2)[GlcNAc(b1-4)]Man(a1-3)[GlcNAc(b1-2)Man(a1-6)]Man(b1-4)GlcNAc(b1-4)GlcNAc
# Procedure, shortened: as §1
# [7] = target: GlcNAc(b1-2)[GlcNAc(b1-4)]Man(a1-3)[GlcNAc(b1-4)][GlcNAc(b1-2)Man(a1-6)]Man(b1-4)GlcNAc(b1-4)GlcNAc
# Procedure, shortened: as §1
# [8] = target: GlcNAc(b1-2)[GlcNAc(b1-4)]Man(a1-3)[GlcNAc(b1-4)][GlcNAc(b1-2)[GlcNAc(b1-6)]Man(a1-6)]Man(b1-4)GlcNAc(b1-4)GlcNAc
# Procedure, shortened: as §1
# [9] = target: GlcNAc(b1-2)[GlcNAc(b1-4)]Man(a1-3)[GlcNAc(b1-4)][GlcNAc(b1-2)[GlcNAc(b1-6)]Man(a1-6)]Man(b1-4)GlcNAc(b1-4)[Fuc(a1-6)]GlcNAc
# Procedure, shortened: as §1
# [10] = target: GlcNAc(b1-2)[GlcNAc(b1-6)]Man(a1-6)[GlcNAc(b1-2)Man(a1-3)]Man(b1-4)GlcNAc(b1-4)GlcNAc
# Procedure, shortened: as §1
# [11] = target: GlcNAc(b1-2)[GlcNAc(b1-6)]Man(a1-6)[GlcNAc(b1-2)Man(a1-3)]Man(b1-4)GlcNAc(b1-4)[Fuc(a1-6)]GlcNAc
# Procedure, shortened: as §1
# [12] = target: GlcNAc(b1-2)[GlcNAc(b1-6)]Man(a1-6)[GlcNAc(b1-4)][GlcNAc(b1-2)Man(a1-3)]Man(b1-4)GlcNAc(b1-4)GlcNAc
# Procedure, shortened: as §1
# GlcNAc(b1-3)Fuc = target: GlcNAc(b1-3)Fuc
# Procedure, shortened: as §1
# GlcNAc(b1-3)Gal = target: GlcNAc(b1-3)Gal
# Procedure, shortened: as §1
# [13] = target: GlcNAc(b1-3)Gal(b1-3)GalNAc
# Procedure, shortened: as §1
# GlcNAc(b1-3)Gal(b1-4)Glc = target: GlcNAc(b1-3)Gal(b1-4)Glc
# Procedure, shortened: as §1
# [14] = target: GlcNAc(b1-3)Gal(b1-4)GlcNAc
# Procedure, shortened: as §1
# [15] = target: GlcNAc(b1-3)Gal(b1-4)GlcNAc(b1-2)Man(a1-3)[GlcNAc(b1-3)Gal(b1-4)GlcNAc(b1-2)Man(a1-6)]Man(b1-4)GlcNAc(b1-4)GlcNAc
# Procedure, shortened: as §1
# [16] = target: GlcNAc(b1-3)Gal(b1-4)GlcNAc(b1-2)Man(a1-3)[GlcNAc(b1-3)Gal(b1-4)GlcNAc(b1-2)Man(a1-6)]Man(b1-4)GlcNAc(b1-4)[Fuc(a1-6)]GlcNAc
# Procedure, shortened: as §1
# [17] = target: GlcNAc(b1-3)Gal(b1-4)GlcNAc(b1-2)[GlcNAc(b1-3)Gal(b1-4)GlcNAc(b1-6)]Man(a1-6)[GlcNAc(b1-3)Gal(b1-4)GlcNAc(b1-2)Man(a1-3)]Man(b1-4)GlcNAc(b1-4)GlcNAc
# Procedure, shortened: as §1
# [18] = target: GlcNAc(b1-3)Gal(b1-4)GlcNAc(b1-3)Gal(b1-4)GlcNAc
# Procedure, shortened: as §1
# [19] = target: GlcNAc(b1-3)Gal(b1-4)GlcNAc(b1-3)Gal(b1-4)GlcNAc(b1-2)Man(a1-3)[GlcNAc(b1-3)Gal(b1-4)GlcNAc(b1-3)Gal(b1-4)GlcNAc(b1-2)Man(a1-6)]Man(b1-4)GlcNAc(b1-4)GlcNAc
# Procedure, shortened: as §1
binder,measurement,setting,value
B1,glycan array binding signal (z-score),[1],-0.604
same,glycan array binding signal (z-score),[2],-0.374
same,glycan array binding signal (z-score),[3],1.31
same,glycan array binding signal (z-score),[4],-0.318
same,glycan array binding signal (z-score),[5],-0.164
same,glycan array binding signal (z-score),[6],0.032
same,glycan array binding signal (z-score),[7],-0.276
same,glycan array binding signal (z-score),[8],-0.196
same,glycan array binding signal (z-score),[9],-0.642
same,glycan array binding signal (z-score),[10],-0.227
same,glycan array binding signal (z-score),[11],1.35
same,glycan array binding signal (z-score),[12],-0.426
same,glycan array binding signal (z-score),GlcNAc(b1-3)Fuc,-0.005
same,glycan array binding signal (z-score),GlcNAc(b1-3)Gal,-0.618
same,glycan array binding signal (z-score),[13],-0.117
same,glycan array binding signal (z-score),GlcNAc(b1-3)Gal(b1-4)Glc,-0.626
same,glycan array binding signal (z-score),[14],-0.454
same,glycan array binding signal (z-score),[15],0.077
same,glycan array binding signal (z-score),[16],-0.353
same,glycan array binding signal (z-score),[17],-0.547
same,glycan array binding signal (z-score),[18],-0.255
same,glycan array binding signal (z-score),[19],3.02
